Reference: paper PMC4336329 (PLoS ONE, 2015)
Hit rate of the full screen: of about 310,000 compounds, about 2,200 (0.71%) showed an effect of 50% or more. Effects have a minus sign here. The list shows a part of the results.

target: human ether-à-go-go-related gene (hERG) potassium channel (human, UniProt Q12809); test: primary screen, population patch clamp on CHO cells stably expressing hERG
Sequence (Q12809 whole entry, looked up): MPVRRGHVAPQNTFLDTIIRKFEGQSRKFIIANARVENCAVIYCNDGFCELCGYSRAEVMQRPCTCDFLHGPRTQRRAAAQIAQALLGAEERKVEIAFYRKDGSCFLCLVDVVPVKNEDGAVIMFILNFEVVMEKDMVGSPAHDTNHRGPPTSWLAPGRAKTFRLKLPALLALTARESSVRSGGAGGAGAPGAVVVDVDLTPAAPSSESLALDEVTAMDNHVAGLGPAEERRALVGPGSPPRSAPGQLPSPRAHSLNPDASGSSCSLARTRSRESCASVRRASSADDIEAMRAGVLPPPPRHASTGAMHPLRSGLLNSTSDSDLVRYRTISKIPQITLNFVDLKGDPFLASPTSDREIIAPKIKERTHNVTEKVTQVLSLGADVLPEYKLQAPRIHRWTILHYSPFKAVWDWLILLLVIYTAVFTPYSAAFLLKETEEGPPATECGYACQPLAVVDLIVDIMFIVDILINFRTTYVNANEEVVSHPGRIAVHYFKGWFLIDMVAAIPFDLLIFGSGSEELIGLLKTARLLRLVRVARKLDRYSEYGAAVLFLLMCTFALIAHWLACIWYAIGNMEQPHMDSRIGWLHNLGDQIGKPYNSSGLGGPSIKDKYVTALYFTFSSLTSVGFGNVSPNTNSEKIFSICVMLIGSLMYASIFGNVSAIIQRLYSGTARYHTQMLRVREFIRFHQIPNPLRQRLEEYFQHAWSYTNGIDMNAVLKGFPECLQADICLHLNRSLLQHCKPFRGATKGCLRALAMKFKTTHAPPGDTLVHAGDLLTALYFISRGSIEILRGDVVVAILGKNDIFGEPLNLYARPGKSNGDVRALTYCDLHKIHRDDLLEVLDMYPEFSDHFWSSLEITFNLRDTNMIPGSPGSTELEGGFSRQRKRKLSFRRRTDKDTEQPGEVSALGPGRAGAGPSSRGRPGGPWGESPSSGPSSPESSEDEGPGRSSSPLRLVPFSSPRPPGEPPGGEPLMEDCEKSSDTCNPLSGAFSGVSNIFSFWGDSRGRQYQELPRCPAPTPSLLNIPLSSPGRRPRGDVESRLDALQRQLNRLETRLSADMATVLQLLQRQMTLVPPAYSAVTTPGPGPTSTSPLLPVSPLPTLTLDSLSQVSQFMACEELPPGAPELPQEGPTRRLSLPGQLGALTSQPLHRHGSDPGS

| SMILES | hERG current change (%, negative = inhibition) at 1uM |
| --- | --- |
| CCOC(=O)c1oc2cccc(OC(C)=O)c2c1C | 4.9% |
| CCNC(=O)N1CCCC(C(=O)c2ccc(C(F)(F)F)cc2)C1 (centres unmarked) | 6.8% |
| CN(Cc1cccc2ccccc12)C(=O)c1cc(COc2c(F)cccc2F)on1 | 18.7% |
| Cc1ncc([N+](=O)[O-])n1CC(=O)Nc1ccc(F)c(F)c1 | 14% |
| Cc1ccc(OP(=O)(NCc2ccccc2)Oc2ccc(C)cc2)cc1 | 3.19% |
| COc1ccc(-c2nc(NC(=O)Cn3cnnn3)sc2C)cc1 | 11.9% |
| COCCCN1CN(Cc2ccco2)CNC1=S | 5.49% |
| COc1ccccc1CNC(=O)CN1c2cccc3cccc(c23)S1(=O)=O | 7.16% |
| O=C(COC(=O)c1cccs1)NC12CC3CC(CC(C3)C1)C2 | 4.56% |
| CCOc1ccc(Cc2nnc(SCC(=O)c3ccc(OC)cc3)o2)cc1 | 9.17% |
| O=C1C=C(/C=C/c2ccccc2)C[C@@H](c2ccc(F)cc2)C1 | 9.08% |
| Cc1ccc(-c2nc3ccccc3n2C)o1 | 11.7% |
| NC1=NN=C(N2N=C(c3ccc(Br)cc3)CC2(O)C(F)(F)F)n2ncnc2C1 (centres unmarked) | 4.73% |
| Cc1cc(F)ccc1NC(=O)Cn1c(C)csc1=O | 15.1% |
| CC(C)(C)C(=O)COC(=O)c1ccccc1O | 10.9% |
| CC(C)(C)NC(=O)CSc1n[nH]c(=O)n1-c1ccccc1 | 11.7% |
| O=C(c1cccnc1)N1CCN(S(=O)(=O)c2ccc(F)cc2)CC1 | 13.1% |
| COc1ccc(N(CC(O)Cn2nnc3ccccc32)S(=O)(=O)c2ccc(C)cc2)cc1 (centres unmarked) | -15.8% |
| O=C(COC(=O)c1ccc[nH]c1=O)NC1CCCc2ccccc21 (centres unmarked) | 11.2% |
| Cc1sc2nc(CN3CCCC3)nc(Cl)c2c1C | 3.18% |

| SMILES | hERG current change (%, negative = inhibition) at 1uM |
| --- | --- |
| Fc1ccc(NC(=S)Nc2ccc(Br)cc2)cc1 | 11.6% |
| Cc1ccn(CCC(=O)O)n1 | 11.7% |
| CCOC(=O)c1nnc(-c2ccccc2)nc1N1CC(C)OC(C)C1 (centres unmarked) | 2.56% |
| Cc1ccc2c(c1)C1CN(C)CCC1N2C(=O)Nc1cccc(C(F)(F)F)c1 (centres unmarked) | -6.66% |
| CCOC(=O)c1oc2ccccc2c1CN1CCN(c2ccccc2)CC1.Cl | 3% |
| Cc1cc(Cl)ccc1OCCCC(=O)NCc1ccccn1 | 9.85% |
| COc1cccc(N/C(=N/C(=S)Nc2ccc(C)cc2C)Nc2nc(C)cc(C)n2)c1 | 9.13% |
| CCOCCn1c(CC)nc2ccccc21 | 10.6% |
| O=C(Nc1cccc(N2C(=O)C=CC2=O)c1)c1cccs1 | 5.92% |
| Cc1cc(C)c2c(c1)cc(C)c1nnc(SCC(=O)Nc3ccccc3N3CCOCC3)n12 | 12.6% |
| O=c1[nH]c(CN2CCOCC2)nc2cc(Cl)ccc12 | 4.78% |
| Clc1ccc(C2=Nn3c(nnc3-c3cc(-c4ccccc4)n[nH]3)SC2)cc1 | -4.12% |
| O=C(C(Cl)Cl)N1CCN(c2ccccn2)CC1 | 7.74% |
| COc1ccc(C(C)=O)cc1COc1nc(C)nc2ccccc12 | 16.7% |
| NC(=O)CC(NC(=O)Cc1ccc(Cl)cc1)c1ccc(NC2CC3CCC2C3)c([N+](=O)[O-])c1 (centres unmarked) | 4.46% |
| Cc1ccc(S(=O)(=O)CCC(=O)Nc2nnc(-c3ccc(F)cc3)o2)cc1 | 14% |
| FC(F)(F)c1ccccc1-n1ccnc1 | 16.9% |
| Cc1cc(C)c(NC(=O)Cn2nnc(C(=O)Nc3ccc(F)cc3F)c2N)c(C)c1 | 15.4% |
| COc1ccc(S(=O)(=O)N2CCC(C(=O)NC3CCCCC3)CC2)cc1OC | 10.5% |
| CCOc1ccccc1OCCCC(=O)N1CCN(S(=O)(=O)c2ccc(Cl)cc2)CC1 | 14.5% |

| SMILES | hERG current change (%, negative = inhibition) at 1uM |
| --- | --- |
| O=c1c2c([nH]c3ccccc13)C(=C1CCCC1)CC2 | -4.77% |
| CC(=O)c1cccc(N(C(=O)CNC(=O)c2ccco2)C(C(=O)NCC2CCCO2)c2ccccc2)c1 (centres unmarked) | 15.7% |
| O=C(COC(=O)/C=C/c1cccs1)Nc1cccc(S(=O)(=O)N2CCOCC2)c1 | 12.8% |
| O=C(CSc1ccccc1)Nc1ccc(N2CCN(c3ccccc3)CC2)c(F)c1 | 11% |
| COCCCNCC1C(Oc2ccc(Cl)cc2)C(=O)N1c1ccccc1C (centres unmarked) | 9.03% |
| CC(C)CC(NC(=O)C1CCC(C)CC1)C(=O)Nc1ccccn1 (centres unmarked) | 7.59% |
| O=C(O)/C=C/C(=O)NCCc1ccc(Cl)cc1 | 13.5% |
| Cc1cc(Br)ccc1NC(=O)CCN1C(=O)c2ccncc2C1=O | 9.03% |
| CCN(CC(=O)Nc1ccccc1C(F)(F)F)C(=O)CN1C(=O)NC2(CCCC2)C1=O | 5.04% |
| Nc1nc(C(=O)N2CCOCC2)nn1S(=O)(=O)c1ccccc1 | 11.4% |
| Cc1ccc2nc(NC(=O)/C=C/c3ccc4c(c3)OCO4)sc2c1 | 11.1% |
| COC(=O)CSc1nc(N)c(C#N)c(CC(C)C)c1C#N | 5.93% |
| Cc1cc(=O)[nH]c(SCCCOc2ccccc2Cl)n1 | 6.59% |
| O=C(Nc1ccc(N2CCN(C(=O)c3ccccc3)CC2)cc1)c1ccc2c(c1)OCO2 | -5.1% |
| Cc1ccc(NC(=S)N2CCc3[nH]c4ccccc4c3C2)cc1 | 12.7% |
| FC(F)(F)c1cccc(NC(=S)Nc2cccc(Cl)c2)c1 | 10.7% |
| O=C(CCS(=O)(=O)c1ccccc1)N1CCCc2ccccc21 | 11.8% |
| Cc1oc(S(=O)(=O)N2CCOCC2)cc1C(=O)Nc1ccc(Cl)cc1 | 6.6% |
| CN(C)CCOC(=O)NCC12CC3CC(CC(C3)C1)C2.Cl | 9.36% |
